# Measured values taken from the supplement of paper PMC8728848.
# The list shows a part of the results.
# Tests used:
# Experiment in all cases: glycan array binding signal (z-score within array); higher = stronger binding
# Settings in all cases: glycan notation: IUPAC condensed, linker removed
# [1] = target: Neu5Ac(a2-6)Gal(b1-4)GlcNAc(b1-2)Man(a1-3)[Man(a1-6)]Man(b1-4)GlcNAc(b1-4)GlcNAc
# Outline: (§1)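 Columns mapping to the same glycan were averaged after glycan names were converted to IUPAC-condensed notation. The data come from 3228 arrays in the Consortium for Functional Glycomics database, limited to those with an available protein sequence. Binding is reported as a within-array Z-score averaged across arrays of one protein sequence and across linkers.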
# [2] = target: Neu5Ac(a2-6)Gal(b1-4)GlcNAc(b1-2)Man(a1-3)[Neu5Ac(a2-3)Gal(b1-4)GlcNAc(b1-2)Man(a1-6)]Man(b1-4)GlcNAc(b1-4)GlcNAc
# Outline: as §1
# [3] = target: Neu5Ac(a2-6)Gal(b1-4)GlcNAc(b1-2)Man(a1-3)[Neu5Ac(a2-6)Gal(b1-4)GlcNAc(b1-2)Man(a1-6)]Man(b1-4)GlcNAc(b1-4)GlcNAc
# Outline: as §1
# [4] = target: Neu5Ac(a2-6)Gal(b1-4)GlcNAc(b1-2)Man(a1-3)[Neu5Ac(a2-6)Gal(b1-4)GlcNAc(b1-2)Man(a1-6)]Man(b1-4)GlcNAc(b1-4)[Fuc(a1-6)]GlcNAc
# Outline: as §1
# [5] = target: Neu5Ac(a2-6)Gal(b1-4)GlcNAc(b1-2)Man(a1-6)Man(b1-4)GlcNAc(b1-4)GlcNAc
# Outline: as §1
# [6] = target: Neu5Ac(a2-6)Gal(b1-4)GlcNAc(b1-2)Man(a1-6)[Gal(b1-4)GlcNAc(b1-2)Man(a1-3)]Man(b1-4)GlcNAc(b1-4)GlcNAc
# Outline: as §1
# [7] = target: Neu5Ac(a2-6)Gal(b1-4)GlcNAc(b1-2)Man(a1-6)[GlcNAc(b1-2)Man(a1-3)]Man(b1-4)GlcNAc(b1-4)GlcNAc
# Outline: as §1
# [8] = target: Neu5Ac(a2-6)Gal(b1-4)GlcNAc(b1-2)Man(a1-6)[Man(a1-3)]Man(b1-4)GlcNAc(b1-4)GlcNAc
# Outline: as §1
# [9] = target: Neu5Ac(a2-6)Gal(b1-4)GlcNAc(b1-2)[Neu5Ac(a2-6)Gal(b1-4)GlcNAc(b1-4)]Man(a1-3)[GlcNAc(b1-4)][Neu5Ac(a2-6)Gal(b1-4)GlcNAc(b1-2)[Neu5Ac(a2-6)Gal(b1-4)GlcNAc(b1-6)]Man(a1-6)]Man(b1-4)GlcNAc(b1-4)GlcNAc
# Outline: as §1
# [10] = target: Neu5Ac(a2-6)Gal(b1-4)GlcNAc(b1-2)[Neu5Ac(a2-6)Gal(b1-4)GlcNAc(b1-4)]Man(a1-3)[GlcNAc(b1-4)][Neu5Ac(a2-6)Gal(b1-4)GlcNAc(b1-4)Man(a1-6)]Man(b1-4)GlcNAc(b1-4)GlcNAc
# Outline: as §1
# [11] = target: Neu5Ac(a2-6)Gal(b1-4)GlcNAc(b1-2)[Neu5Ac(a2-6)Gal(b1-4)GlcNAc(b1-6)]Man(a1-6)[Neu5Ac(a2-6)Gal(b1-4)GlcNAc(b1-2)Man(a1-3)][GlcNAc(b1-4)]Man(b1-4)GlcNAc(b1-4)GlcNAc
# Outline: as §1
# [12] = target: Neu5Ac(a2-6)Gal(b1-4)GlcNAc(b1-3)Gal(b1-3)GlcNAc
# Outline: as §1
# [13] = target: Neu5Ac(a2-6)Gal(b1-4)GlcNAc(b1-3)Gal(b1-4)GlcNAc
# Outline: as §1
# [14] = target: Neu5Ac(a2-6)Gal(b1-4)GlcNAc(b1-3)Gal(b1-4)GlcNAc(b1-2)Man(a1-3)[Neu5Ac(a2-6)Gal(b1-4)GlcNAc(b1-3)Gal(b1-4)GlcNAc(b1-2)Man(a1-6)]GalNAc
# Outline: as §1
# [15] = target: Neu5Ac(a2-6)Gal(b1-4)GlcNAc(b1-3)Gal(b1-4)GlcNAc(b1-3)Gal(b1-4)GlcNAc
# Outline: as §1
# [16] = target: Neu5Ac(a2-6)Gal(b1-4)GlcNAc(b1-3)Gal(b1-4)GlcNAc(b1-3)Gal(b1-4)GlcNAc(b1-2)Man(a1-3)[Neu5Ac(a2-6)Gal(b1-4)GlcNAc(b1-3)Gal(b1-4)GlcNAc(b1-3)Gal(b1-4)GlcNAc(b1-2)Man(a1-6)]GalNAc
# Outline: as §1
# [17] = target: Neu5Ac(a2-6)Gal(b1-4)GlcNAc(b1-3)Gal(b1-4)GlcNAc(b1-3)GalNAc
# Outline: as §1
# [18] = target: Neu5Ac(a2-6)Gal(b1-4)GlcNAc(b1-3)Gal(b1-4)GlcNAc(b1-3)[Neu5Ac(a2-6)Gal(b1-4)GlcNAc(b1-3)Gal(b1-4)GlcNAc(b1-6)]GalNAc
# Outline: as §1
# [19] = target: Neu5Ac(a2-6)Gal(b1-4)GlcNAc(b1-3)Gal(b1-4)GlcNAc(b1-6)[Gal(b1-3)]GalNAc
# Outline: as §1
# [20] = target: Neu5Ac(a2-6)Gal(b1-4)GlcNAc(b1-3)Gal(b1-4)[Fuc(a1-3)]GlcNAc(b1-3)Gal(b1-4)[Fuc(a1-3)]GlcNAc
# Outline: as §1
# [21] = target: Neu5Ac(a2-6)Gal(b1-4)GlcNAc(b1-3)GalNAc
# Outline: as §1
# [22] = target: Neu5Ac(a2-6)Gal(b1-4)GlcNAc(b1-3)[Neu5Ac(a2-6)Gal(b1-4)GlcNAc(b1-6)]GalNAc
# Outline: as §1
# [23] = target: Neu5Ac(a2-6)Gal(b1-4)GlcNAc(b1-6)GalNAc
# Outline: as §1
# [24] = target: Neu5Ac(a2-6)Gal(b1-4)GlcNAc(b1-6)[Gal(b1-3)GlcNAc(b1-3)]Gal(b1-4)Glc
# Outline: as §1
# [25] = target: Neu5Ac(a2-6)Gal(b1-4)GlcNAc(b1-6)[Gal(b1-3)]GalNAc
# Outline: as §1
# [26] = target: Neu5Ac(a2-6)Gal(b1-4)GlcNAc6S
# Outline: as §1
# Neu5Ac(a2-6)GalNAc = target: Neu5Ac(a2-6)GalNAc
# Outline: as §1
# [27] = target: Neu5Ac(a2-6)GalNAc(b1-4)GlcNAc
# Outline: as §1
# [28] = target: Neu5Ac(a2-6)GalNAc(b1-4)GlcNAc6S
# Outline: as §1
# [29] = target: Neu5Ac(a2-6)GlcNAc(b1-4)GlcNAc
# Outline: as §1
# [30] = target: Neu5Ac(a2-6)GlcNAc(b1-4)GlcNAc(b1-4)GlcNAc
# Outline: as §1
binder,measurement,setting,value
Na-CTL-1 (Necator americanus) (protein) MQRSFLLLLVVLAGAWAVNTTIPLKLMGGFTPMKYQCVGRVSDIWADVLFLIESSDMITKSGFRQVIAFITATTKKMTIGQDEKQTRVGFITYGEEAKLIYDLDHWRSTEKLSDLVQKIPYVKSSGTNIAAAIALANKVFNSPTHRPNVPKVMVIVANGLKKGSQNPIPVATAFKDFGGIIITIEYTQYDNIQVPILKKIASEGYNIRSNDEDFSVRTLTNMLLQANCFCPDHYVPFRVNNPEFGCFVTAKIPSMWRDAAEMCRAVEEGKLVKVENEEKAAFIMKLVGPKKEAWIGLRYYGNKFQWTDGTKLNADDFNLWPEDIKELNGPHCVSMYQDQKDKKYYWRAGKCLEDMRYVCEVQPCSASNYCSEPVFMYRQKHRALLPAPPPPPN,glycan array binding signal (z-score),[1],-0.343
same,glycan array binding signal (z-score),[2],0.359
same,glycan array binding signal (z-score),[3],0.264
same,glycan array binding signal (z-score),[4],0.041
same,glycan array binding signal (z-score),[5],-0.384
same,glycan array binding signal (z-score),[6],-0.448
same,glycan array binding signal (z-score),[7],-0.648
same,glycan array binding signal (z-score),[8],-0.294
same,glycan array binding signal (z-score),[9],-0.381
same,glycan array binding signal (z-score),[10],-0.144
same,glycan array binding signal (z-score),[11],0.04
same,glycan array binding signal (z-score),[12],-0.379
same,glycan array binding signal (z-score),[13],-0.169
same,glycan array binding signal (z-score),[14],-0.092
same,glycan array binding signal (z-score),[15],-0.417
same,glycan array binding signal (z-score),[16],1.11
same,glycan array binding signal (z-score),[17],-0.447
same,glycan array binding signal (z-score),[18],-0.37
same,glycan array binding signal (z-score),[19],-0.555
same,glycan array binding signal (z-score),[20],-0.049
same,glycan array binding signal (z-score),[21],-0.617
same,glycan array binding signal (z-score),[22],-0.117
same,glycan array binding signal (z-score),[23],0.118
same,glycan array binding signal (z-score),[24],-0.395
same,glycan array binding signal (z-score),[25],0.22
same,glycan array binding signal (z-score),[26],-0.168
same,glycan array binding signal (z-score),Neu5Ac(a2-6)GalNAc,-0.234
same,glycan array binding signal (z-score),[27],-0.138
same,glycan array binding signal (z-score),[28],-0.352
same,glycan array binding signal (z-score),[29],0.251
same,glycan array binding signal (z-score),[30],1.95
